Data from article PMC12900513.
No constants are given. Whether binding was seen depends on the method and setting. In cells and extracts the contact can be indirect. Some binding calls cover weakened binding; strength is not graded here. For part of these data: Sequences can lack the tags named with a protein.

Amino acid sequences for entries named in this document (tags omitted). A change or cut given only in a name is not applied to a line headed by its entry. Chains listed by the source or under a name are the forms on record and can include a tag or linker. Residues count along the entry.
UniProt P98161: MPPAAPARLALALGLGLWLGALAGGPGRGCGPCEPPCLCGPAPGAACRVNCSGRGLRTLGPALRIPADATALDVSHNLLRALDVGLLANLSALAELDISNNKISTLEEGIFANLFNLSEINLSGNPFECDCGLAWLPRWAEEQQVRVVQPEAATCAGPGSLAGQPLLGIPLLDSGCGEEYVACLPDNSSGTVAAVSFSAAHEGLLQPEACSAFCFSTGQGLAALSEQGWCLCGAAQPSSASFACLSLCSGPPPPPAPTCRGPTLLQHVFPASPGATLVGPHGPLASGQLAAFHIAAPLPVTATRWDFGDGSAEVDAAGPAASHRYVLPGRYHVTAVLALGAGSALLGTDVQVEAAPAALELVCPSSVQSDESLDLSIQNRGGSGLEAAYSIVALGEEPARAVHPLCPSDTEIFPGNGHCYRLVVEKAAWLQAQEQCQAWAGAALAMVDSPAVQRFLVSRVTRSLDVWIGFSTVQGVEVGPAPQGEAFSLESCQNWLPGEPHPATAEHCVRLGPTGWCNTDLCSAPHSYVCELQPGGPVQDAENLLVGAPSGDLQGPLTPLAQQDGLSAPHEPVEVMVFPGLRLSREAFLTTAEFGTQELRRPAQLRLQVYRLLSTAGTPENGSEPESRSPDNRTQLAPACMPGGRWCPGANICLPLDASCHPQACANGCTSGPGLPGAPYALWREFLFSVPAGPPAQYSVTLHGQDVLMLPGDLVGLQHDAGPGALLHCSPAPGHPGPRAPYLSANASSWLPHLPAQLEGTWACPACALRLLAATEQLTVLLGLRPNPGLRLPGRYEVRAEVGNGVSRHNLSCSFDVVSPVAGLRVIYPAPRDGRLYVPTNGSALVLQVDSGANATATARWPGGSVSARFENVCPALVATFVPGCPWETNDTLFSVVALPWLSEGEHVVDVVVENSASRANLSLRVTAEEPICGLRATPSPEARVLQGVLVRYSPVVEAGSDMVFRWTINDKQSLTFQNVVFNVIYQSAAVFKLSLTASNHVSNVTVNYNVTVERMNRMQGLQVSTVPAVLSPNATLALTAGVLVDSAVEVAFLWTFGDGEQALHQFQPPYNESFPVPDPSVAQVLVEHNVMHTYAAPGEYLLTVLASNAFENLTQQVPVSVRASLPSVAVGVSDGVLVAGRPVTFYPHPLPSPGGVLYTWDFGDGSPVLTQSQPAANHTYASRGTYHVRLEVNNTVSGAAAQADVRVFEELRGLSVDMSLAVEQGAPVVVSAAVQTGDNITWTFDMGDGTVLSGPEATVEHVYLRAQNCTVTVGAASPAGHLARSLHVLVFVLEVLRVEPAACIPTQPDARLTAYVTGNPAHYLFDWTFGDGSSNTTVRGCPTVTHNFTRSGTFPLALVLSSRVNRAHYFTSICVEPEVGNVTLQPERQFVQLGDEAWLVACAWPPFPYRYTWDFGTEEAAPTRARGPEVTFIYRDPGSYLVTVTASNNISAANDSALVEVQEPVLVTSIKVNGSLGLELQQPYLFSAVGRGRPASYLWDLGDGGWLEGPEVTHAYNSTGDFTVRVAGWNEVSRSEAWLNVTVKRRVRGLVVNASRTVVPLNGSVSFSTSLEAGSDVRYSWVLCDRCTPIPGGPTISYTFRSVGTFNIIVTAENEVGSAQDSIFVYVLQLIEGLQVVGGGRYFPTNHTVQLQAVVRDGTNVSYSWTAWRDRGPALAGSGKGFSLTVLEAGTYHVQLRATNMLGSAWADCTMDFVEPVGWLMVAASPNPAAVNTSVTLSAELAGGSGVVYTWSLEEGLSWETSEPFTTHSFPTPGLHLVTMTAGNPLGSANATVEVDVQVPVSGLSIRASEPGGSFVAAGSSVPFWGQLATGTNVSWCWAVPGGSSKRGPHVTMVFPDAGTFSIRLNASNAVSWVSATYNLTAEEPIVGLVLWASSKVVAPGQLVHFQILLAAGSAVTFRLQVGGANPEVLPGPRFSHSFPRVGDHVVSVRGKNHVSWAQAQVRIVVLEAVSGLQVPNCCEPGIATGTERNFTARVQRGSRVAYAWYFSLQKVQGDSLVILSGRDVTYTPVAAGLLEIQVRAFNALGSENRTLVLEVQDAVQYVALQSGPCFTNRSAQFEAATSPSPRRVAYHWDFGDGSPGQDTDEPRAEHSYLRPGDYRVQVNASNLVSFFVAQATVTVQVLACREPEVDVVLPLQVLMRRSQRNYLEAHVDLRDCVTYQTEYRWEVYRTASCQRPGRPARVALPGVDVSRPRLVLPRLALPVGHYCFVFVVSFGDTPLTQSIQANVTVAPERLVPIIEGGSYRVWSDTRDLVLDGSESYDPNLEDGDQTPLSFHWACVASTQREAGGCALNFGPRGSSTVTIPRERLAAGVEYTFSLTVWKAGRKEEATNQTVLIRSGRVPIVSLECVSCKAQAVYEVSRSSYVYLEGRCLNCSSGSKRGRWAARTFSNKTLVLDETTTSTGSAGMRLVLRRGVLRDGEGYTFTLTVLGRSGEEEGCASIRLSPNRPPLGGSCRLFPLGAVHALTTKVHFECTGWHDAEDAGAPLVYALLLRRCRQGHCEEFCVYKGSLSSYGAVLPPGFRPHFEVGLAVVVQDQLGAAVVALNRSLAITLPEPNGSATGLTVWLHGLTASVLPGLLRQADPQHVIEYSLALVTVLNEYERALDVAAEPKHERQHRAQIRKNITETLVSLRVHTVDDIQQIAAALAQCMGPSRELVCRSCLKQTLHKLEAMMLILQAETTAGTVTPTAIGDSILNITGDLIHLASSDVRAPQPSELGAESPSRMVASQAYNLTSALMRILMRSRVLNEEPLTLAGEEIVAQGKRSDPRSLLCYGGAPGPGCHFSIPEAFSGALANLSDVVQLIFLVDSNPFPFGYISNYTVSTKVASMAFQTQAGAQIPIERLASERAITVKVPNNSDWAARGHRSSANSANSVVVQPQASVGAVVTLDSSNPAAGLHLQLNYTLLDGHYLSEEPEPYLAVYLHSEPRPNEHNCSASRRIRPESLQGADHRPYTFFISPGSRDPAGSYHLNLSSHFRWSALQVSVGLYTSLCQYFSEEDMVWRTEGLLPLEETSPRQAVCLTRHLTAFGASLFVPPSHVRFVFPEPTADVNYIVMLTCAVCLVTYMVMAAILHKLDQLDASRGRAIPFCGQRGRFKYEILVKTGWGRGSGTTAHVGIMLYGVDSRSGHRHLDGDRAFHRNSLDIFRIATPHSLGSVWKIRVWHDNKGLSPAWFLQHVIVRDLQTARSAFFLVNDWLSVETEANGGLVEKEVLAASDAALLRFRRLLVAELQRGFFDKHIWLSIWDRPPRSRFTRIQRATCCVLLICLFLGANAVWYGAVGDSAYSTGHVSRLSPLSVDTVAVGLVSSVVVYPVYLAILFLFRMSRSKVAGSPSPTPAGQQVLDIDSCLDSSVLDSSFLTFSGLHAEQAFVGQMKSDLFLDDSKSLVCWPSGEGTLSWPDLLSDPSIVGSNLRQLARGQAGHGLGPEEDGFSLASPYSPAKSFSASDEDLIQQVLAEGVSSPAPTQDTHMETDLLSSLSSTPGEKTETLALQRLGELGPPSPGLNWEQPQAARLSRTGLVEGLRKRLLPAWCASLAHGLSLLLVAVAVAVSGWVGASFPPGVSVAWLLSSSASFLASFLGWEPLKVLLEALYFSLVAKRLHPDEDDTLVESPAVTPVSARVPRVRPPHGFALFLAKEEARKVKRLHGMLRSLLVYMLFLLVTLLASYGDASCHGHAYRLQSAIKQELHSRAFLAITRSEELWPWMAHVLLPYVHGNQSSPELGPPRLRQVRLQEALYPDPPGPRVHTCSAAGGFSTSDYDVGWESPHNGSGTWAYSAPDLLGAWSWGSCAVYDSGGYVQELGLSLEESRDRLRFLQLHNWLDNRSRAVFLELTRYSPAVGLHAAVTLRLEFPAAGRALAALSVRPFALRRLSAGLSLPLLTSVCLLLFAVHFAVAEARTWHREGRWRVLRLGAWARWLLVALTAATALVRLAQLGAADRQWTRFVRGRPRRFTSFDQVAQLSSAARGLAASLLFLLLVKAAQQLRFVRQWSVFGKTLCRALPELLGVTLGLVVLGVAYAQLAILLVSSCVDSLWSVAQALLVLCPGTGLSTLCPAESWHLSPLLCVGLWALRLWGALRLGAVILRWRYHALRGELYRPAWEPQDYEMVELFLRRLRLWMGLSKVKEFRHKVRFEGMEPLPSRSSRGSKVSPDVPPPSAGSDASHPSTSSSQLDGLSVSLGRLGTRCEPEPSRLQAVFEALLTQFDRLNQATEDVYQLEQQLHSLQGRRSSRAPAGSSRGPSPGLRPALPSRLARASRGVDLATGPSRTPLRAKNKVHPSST
PC1-HA (full-length HA-tagged Polycystin-1): residues 24-4303 of P98161
GST-CT1 (mammalian GST fusion, co-expressed in cells): residues 4107-4303 of P98161
GST-CT1-R4227X (mammalian GST fusion, co-expressed in cells): residues 4107-4226 of P98161
UniProt Q9H694: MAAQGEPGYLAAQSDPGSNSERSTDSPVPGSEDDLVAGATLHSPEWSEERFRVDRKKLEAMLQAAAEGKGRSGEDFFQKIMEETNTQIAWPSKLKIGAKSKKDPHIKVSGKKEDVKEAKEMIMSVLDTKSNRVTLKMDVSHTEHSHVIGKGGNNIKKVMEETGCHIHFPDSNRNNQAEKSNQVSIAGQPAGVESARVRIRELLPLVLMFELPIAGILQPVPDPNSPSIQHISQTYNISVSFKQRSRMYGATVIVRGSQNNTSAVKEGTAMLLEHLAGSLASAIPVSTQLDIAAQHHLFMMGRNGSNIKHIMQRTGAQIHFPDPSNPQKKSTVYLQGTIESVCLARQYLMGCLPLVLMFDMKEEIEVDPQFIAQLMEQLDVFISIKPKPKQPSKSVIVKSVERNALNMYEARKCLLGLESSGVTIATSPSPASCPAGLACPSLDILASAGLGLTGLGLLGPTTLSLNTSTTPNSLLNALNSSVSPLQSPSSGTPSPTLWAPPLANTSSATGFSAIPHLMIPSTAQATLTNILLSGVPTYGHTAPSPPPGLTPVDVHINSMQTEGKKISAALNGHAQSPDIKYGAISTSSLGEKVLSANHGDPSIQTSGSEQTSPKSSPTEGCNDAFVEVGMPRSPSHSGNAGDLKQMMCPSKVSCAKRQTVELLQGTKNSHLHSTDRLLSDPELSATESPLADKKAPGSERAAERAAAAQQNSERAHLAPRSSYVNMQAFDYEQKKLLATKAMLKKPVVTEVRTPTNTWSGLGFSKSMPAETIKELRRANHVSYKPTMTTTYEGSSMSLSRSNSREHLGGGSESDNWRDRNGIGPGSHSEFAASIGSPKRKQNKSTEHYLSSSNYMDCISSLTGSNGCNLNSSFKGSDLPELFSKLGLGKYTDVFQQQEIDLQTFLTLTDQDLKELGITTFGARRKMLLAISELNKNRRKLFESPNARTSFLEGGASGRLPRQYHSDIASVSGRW

Key:
[1] = target: T1, GST-NT2 1-100 (bacterial, purified) (UniProt Q13563); test: pull-down; in vitro: 1–2 µg bacterial GST fusion protein (bait) and 10 µl in vitro translated myc-mBicc1 in 300 μl 1×TBST with 0.2% Tween20, 1 hour at room temperature, Glutathione Sepharose 4B; only the target purified
T1 sequence: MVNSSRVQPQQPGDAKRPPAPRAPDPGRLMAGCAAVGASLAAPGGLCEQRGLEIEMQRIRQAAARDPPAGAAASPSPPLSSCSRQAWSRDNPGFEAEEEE

[2] = target: T2, GST-NT2 (bacterial, purified) (UniProt Q13563); test: as above
T2 sequence: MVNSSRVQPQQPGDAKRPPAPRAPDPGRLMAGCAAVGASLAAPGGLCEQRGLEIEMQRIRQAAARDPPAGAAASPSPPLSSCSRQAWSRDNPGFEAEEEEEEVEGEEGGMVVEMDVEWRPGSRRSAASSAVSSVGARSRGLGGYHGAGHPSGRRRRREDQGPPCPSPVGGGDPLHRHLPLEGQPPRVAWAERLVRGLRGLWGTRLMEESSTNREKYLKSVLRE

[3] = target: GST-CT1 (bacterial, purified) (UniProt P98161); test: as above
[4] = target: T3, GST-NT2 101-223 (bacterial, purified) (UniProt Q13563); test: as above
T3 sequence: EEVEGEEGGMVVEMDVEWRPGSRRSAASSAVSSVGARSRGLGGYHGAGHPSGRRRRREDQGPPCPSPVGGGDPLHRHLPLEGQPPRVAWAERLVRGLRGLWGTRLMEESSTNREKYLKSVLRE

[5] = target: GST-CT1-R4227X (bacterial, purified) (UniProt P98161); test: condition: 1–2 µg GST fusion protein and 10 µl myc-mBicc1 IVT in 300 μl; pull-down; in vitro: 1–2 µg bacterial GST fusion protein (bait) and 10 µl in vitro translated myc-mBicc1 in 300 μl 1×TBST with 0.2% Tween20, 1 hour at room temperature, Glutathione Sepharose 4B; only the target purified
[6] = target: T4, GST-CT2 (bacterial, purified) (UniProt Q13563); test: as above
T4 sequence: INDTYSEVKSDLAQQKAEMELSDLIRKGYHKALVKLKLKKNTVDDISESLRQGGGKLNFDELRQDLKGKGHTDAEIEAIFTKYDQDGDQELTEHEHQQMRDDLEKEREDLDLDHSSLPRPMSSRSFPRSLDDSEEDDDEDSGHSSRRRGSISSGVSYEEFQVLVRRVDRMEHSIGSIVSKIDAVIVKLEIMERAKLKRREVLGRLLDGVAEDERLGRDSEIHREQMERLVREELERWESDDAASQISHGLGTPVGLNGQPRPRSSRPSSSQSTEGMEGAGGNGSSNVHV

[7] = target: endogenous BICC1 in UCL93 cells (human (endogenous in UCL93)) (UniProt Q9H694); test: co-IP; endogenous proteins in lysates of UCL93 human kidney epithelial cells; IP with rabbit anti-PC1 (2b7), anti-BICC1 or anti-PC2
[8] = target: GST-CT1 (mammalian GST fusion, co-expressed in cells) (UniProt P98161); test: pull-down; GST pull-down from cells co-expressing GST-tagged PC1 or PC2 domains (bait) and myc-mBicc1; HEK-293
[9] = target: T5, GST-NT2 (mammalian GST fusion, co-expressed in cells) (UniProt Q13563); test: as above
T5 sequence: T2 sequence

[10] = target: GST-CT1-R4227X (mammalian GST fusion, co-expressed in cells) (UniProt P98161); test: as above
[11] = target: T6, PC2-HA (full-length HA-tagged Polycystin-2) (UniProt Q13563); test: co-IP; myc-mBicc1 constructs co-expressed with HA-tagged PC1 or PC2 in HEK-293 cells; the HA-tagged protein as bait
T6 sequence: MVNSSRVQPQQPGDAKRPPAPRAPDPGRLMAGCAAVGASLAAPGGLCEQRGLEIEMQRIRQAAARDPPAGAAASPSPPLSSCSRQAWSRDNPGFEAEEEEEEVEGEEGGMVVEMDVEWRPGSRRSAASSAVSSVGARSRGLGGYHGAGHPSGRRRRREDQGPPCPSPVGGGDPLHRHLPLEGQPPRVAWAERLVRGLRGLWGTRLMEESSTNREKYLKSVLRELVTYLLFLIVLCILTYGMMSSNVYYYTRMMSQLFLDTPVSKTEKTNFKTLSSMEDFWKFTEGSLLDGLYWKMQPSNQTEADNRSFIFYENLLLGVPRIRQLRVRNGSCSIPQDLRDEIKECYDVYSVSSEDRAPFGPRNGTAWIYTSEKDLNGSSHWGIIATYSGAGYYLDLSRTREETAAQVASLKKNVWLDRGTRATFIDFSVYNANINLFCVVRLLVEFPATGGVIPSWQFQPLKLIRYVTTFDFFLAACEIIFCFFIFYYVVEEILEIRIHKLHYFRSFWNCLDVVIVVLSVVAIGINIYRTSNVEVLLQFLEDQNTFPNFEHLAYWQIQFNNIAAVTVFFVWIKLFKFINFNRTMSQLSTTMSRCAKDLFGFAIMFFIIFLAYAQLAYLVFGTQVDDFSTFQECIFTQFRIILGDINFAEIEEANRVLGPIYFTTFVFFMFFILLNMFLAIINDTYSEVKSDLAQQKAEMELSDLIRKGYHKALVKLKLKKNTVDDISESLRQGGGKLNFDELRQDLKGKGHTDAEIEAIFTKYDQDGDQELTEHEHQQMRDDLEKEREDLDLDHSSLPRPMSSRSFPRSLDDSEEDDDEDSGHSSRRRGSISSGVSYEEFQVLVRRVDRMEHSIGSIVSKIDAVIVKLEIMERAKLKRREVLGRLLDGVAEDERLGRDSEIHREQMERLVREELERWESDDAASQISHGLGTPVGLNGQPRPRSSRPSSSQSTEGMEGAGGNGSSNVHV

[12] = target: PC1-HA (full-length HA-tagged Polycystin-1) (UniProt P98161); test: as above

B1: myc-mBicc1 IVT (in vitro translated) (protein, UniProt Q99MQ1 1-977)
chain: MASQSEPGYLAAAQSDPGSNSERSTDSPVAGSEDDLVAAAPLLHSPEWSEERFRVDRKKLEAMLQAAAEGKGRSGEDFFQKIMEETNTQIAWPSKLKIGAKSKKDPHIKVSGKKEDVKEAKEMIMSVLDTKSNRVTLKMDVSHTEHSHVIGKGGNNIKKVMEDTGCHIHFPDSNRNNQAEKSNQVSIAGQPAGVESARARIRELLPLVLMFELPIAGILQPVPDPNTPSIQHISQTYSVSVSFKQRSRMYGATVTVRGSQNNTNAVKEGTAMLLEHLAGSLASAIPVSTQLDIAAQHHLFMMGRNGSNVKHIMQRTGAQIHFPDPSNPQKKSTVYLQGTIESVCLARQYLMGCLPLVLMFDMKEDIEVDPQVIAQLMEQLDVFISIKPKPKQPSKSVIVKSVERNALNMYEARKCLLGLESSGVSIATSLSPASCPAGLACPSLDILASAGLGLTGLGLLGPTTLSLNTSATPNSLLNALNTSVSPLQSSSSGTPSPTLWAPPIANTASATGFSTIPHLMLPSTAQATLTNILLSGVPTYGHTAPSPPPGLTPVDVHINSMQTEGKNISASINGHVQPANMKYGPLSTSSLGEKVLSSNHGDPSMQTAGPEQASPKSNSVEGCNDAFVEVGMPRSPSHSGNAGDLKQMLGASKVSCAKRQTVELLQGTKNSHLHGTDRLLSDPELSATESPLADKKAPGSERAAERAAAAQQKSERARLASQPTYVHMQAFDYEQKKLLATKAMLKKPVVTEVRTPTNTWSGLGFSKSMPAETIKELRRANHVSYKPTMTTAYEGSSLSLSRSSSREHLASGSESDNWRDRNGIGPMGHSEFSAPIGSPKRKQNKSREHYLSSSNYMDCISSLTGSNGCNLNSCFKGSDLPELFSKLGLGKYTDVFQQQEIDLQTFLTLTDQDLKELGITTFGARRKMLLAISELSKNRRKLFEPPNASCTSFLEGGASGRLPRQYHSDIASVSGRW
binding [1]: binds
binding [2]: binds
binding [3]: binds
binding [4]: binds
binding [5]: no binding
binding [6]: no binding

B2: endogenous PC2 (Polycystin-2) in UCL93 cells (protein, UniProt Q13563 1-968)
chain: T6 sequence
binding [7]: binds

B3: myc-mBicc1 (full-length, transfected in HEK-293 cells) (protein, UniProt Q99MQ1 1-977)
chain: B1 chain
binding [8]: binds
binding [9]: binds
binding [10]: no binding
binding [11]: binds
binding [12]: binds
